# The RNAGym collection of RNA variant scans (doi:10.7554/elife.90254)
# The source gives no read counts; variants with many changes may rest on few reads.
# B1: LINE1-full (parent)
# chain: UACGUAGGUGGUUUUCCCCUGAUAGUGCUAAGGGGGCCUGGAAGUUUGGACUGGGCAGAGCUCAACACAGCGUGGCAAAGUGGCUGUGGCUAGACUGCCUCUCUGGAUUCCUCGUCACUCAGCAGGGCAUCUCUGAGAGAAAUGCC
# Variants of: B1
# Experiment: self-cleavage, relative activity (ratio to wild type); higher = more cleavage; in vitro, sequencing; the parent is a self-cleaving ribozyme
row,Variant,self-cleavage
1,U14A U109C A121G U130C A142G,1.02
2,U14A U15A C19U,0
3,U13G U15C A42G A129C,0.92
4,U13C U112C A124G,0.8
5,U14C A42G U47C U52A U87G,0.84
6,U13C U62A A121C,0
7,U14A A67G A141G,0.57
8,U13C U85A C145U,0.13
9,U14A U45A A138G,1
10,U14A A124U U132C A141G,0.22
11,U14A U62C G72A U73C,0.04
12,U14C A31U U96A A129G,0
13,U14C A30U A141G,1.27
14,U14C A22U U52C,1.87
15,U14A U85C U100C U112C,0.4
16,U14A U45C U47C C51G,1.13
17,U14C A22G G32A U62C A69U A107G,0.11
18,U14A A94U G126U C145U,0.2
19,U13C U85C U115C U132C,1.25
20,U14A U29C A107G A136U,1.24
21,U14A G60A A65G A129G,0.09
22,U13C U73C A77U U119C,1.95
23,U13C U96C U119C,0.08
24,U14A C38A U46C U73C A140G,1.15

row,Variant,self-cleavage
1,U14A A24U A57U C84U C123A,0.04
2,U13G A77G A78G,2.12
3,U14A A31G A64C A79U A117G,0.33
4,U14A A59G U62C U73C,0.25
5,U14A A57G U73C,1.16
6,U13C U130C A140G,2.7
7,U14C A22U U102C A141G,1.16
8,U13C U134C A138G,0
9,U14A C103A A142G,0.88
10,U14A A22G A138G A141G,2.25
11,U13C U100C G114A,2
12,U13C U100C U119A U143C,1.88
13,U13C U112C A129G U132A,1.69
14,U13G A77U A129U A140G U143A,0.61
15,U13G U14C U46C A57U A69G U87A C123A G144A,0.32
16,U14C A42G U115A A124G A136G,2.63
17,U14C A22U A57G G89U A129U A140G,0.07
18,U13C U87A U104C,0.18
19,U14A U20C C145A,0.45
20,U14C A24G U134C,0.71
21,U14A U62A A65C A79U,0
22,U13C U96A U100C,0.11
23,U14A A43G U108C U143A,1.21
24,U14A A79G A92G,0

row,Variant,self-cleavage
1,U13C U81C U130G,1.23
2,U13C U134C A136G,1.48
3,U14C A42G U62C A121G,0
4,U13G A57G U112C A140U,1.63
5,U13C U104A U119C,1.89
6,U14C A31G A59G G70A C145G,0.09
7,U13C U62C A94G,0.23
8,U14A G89A U108C,0.03
9,U14C A30G U39A G89A U132C,0.1
10,U13C U96C G122U A136G U143C,0.3
11,U13C U73A U91C U115A A121U,0.5
12,U14A U104A U119C,1.63
13,U13C U112C C120A,1.39
14,U13C U104A A138G,1.2
15,U14A A117G U132C,1.84
16,U13G A22U U29C A43G U132C,0
17,U13G A59U A79G,0
18,U14A A65G C84G U104A U115A,0.1
19,U14C A22G U26G,0.53
20,U13G U45C A117U,0.55
21,U14A U29C A117G,2.83
22,U14A U20C A42G,1.98
23,U14A A30G U104A,1.53
24,U14A U62A U132A,0.08

row,Variant,self-cleavage
1,U14A A42G U119C G125U,2.04
2,U14A A124U U132C U143C,0.85
3,U14A C19A C133U,1.6
4,U14A U62C U100C G127A,0.07
5,U13C U87C A136U,0.53
6,U14C A43G A69G,0.34
7,U13C U87G G97A A121G A138U,0.13
8,U14C A22U U39A U85A U119C,0.12
9,U14A U112C U132A,0.74
10,U13C U108A G139A A142G,0.35
11,U13C U73G U96A U100C A141G,0.06
12,U13C U52C U91C,0.63
13,U13C U112C A136G U143C,1.15
14,U13C U62C A77G A107G G114C,0
15,U13C U62C A69C A136G A141G,0
16,U14C A22G A67G G75U,0.24
17,U13C U87A A140G,0.23
18,U13C U100C A136G,0.92
19,U13C U85A C103U,0.15
20,U14A U29A U134C,0.75
21,U14A G36U A64G U109A A141G,0.08
22,U13G U26C A124G,0.46
23,U13C U73C U134A A141G,1.76
24,U14A U62C A78G U102C,0

row,Variant,self-cleavage
1,U13C U73C G82A,2.16
2,U14A G27A U100A A138G,0.24
3,U13C U62C A79U,0.09
4,U14A G48A U119A,0.67
5,U13C U73C A79G,1.34
6,U14A U62C A92G A141G,0.19
7,U14C A42U A140G,0.66
8,U14C A31U A140G,1.28
9,U14A A22G A107G,0.98
10,U13G U73A C113U U115C,1.49
11,U14A U26C U132A,0.98
12,U14C A22G U39G A129G A142G,0
13,U14C A42G A69G C71U,0.25
14,U13C U112C C113A,0.63
15,U13C U62C G74A U109C,0.04
16,U14A A31U A77C,1.4
17,U14C A22G G35A A121G,0.92
18,U13C U73A G89U C95U U108C,0.03
19,U14C A30U A92U U132C,0.62
20,U14C A42G U47A U62C A121G,0.13
21,U13C U108A U109A,0
22,U13C U119C U132C,1.77
23,U13G A65U C99U C101A,0.2
24,U14A G27A U96A,0.15

row,Variant,self-cleavage
1,U14A A67C A129U,0.23
2,U13C U130A U132C A138G,1.44
3,U13C U112C A121G,1.41
4,U14A U115C A121U,1.16
5,U13C U62C A121U A138U,0.1
6,U14C A31G A78G A92G,0.98
7,U14C A42G A67G,0.27
8,U14C A24G A138G A141G,0
9,U14A G88A A141G,0.06
10,U14C A30G A57G A64U U109A,0.3
11,U14A A24U G32A C113U,0.69
12,U14A A124U A138G A141G,1.79
13,U13C U102C U115A U119C,0.77
14,U14A U39A A78G,0.76
15,U13G A65G U85G,0
16,U13G A79G U96A A107G,0.12
17,U14C A31C A138U,1.05
18,U14C A31G A64U A79G A140U,0.84
19,U13G U39C A57U U73A,0.09
20,U13G U115C A124G,0.54
21,U14A A59C A94G A136U A140G,1.84
22,U13C U81C A136G,1.72
23,U14A A22G A129U,1.15
24,U14A U100A U130C,0.93

row,Variant,self-cleavage
1,U13C U62C A67G,0.22
2,U14C A24U C90U A121U,0.03
3,U13C U100A G122A,0.73
4,U13G A30G U100C,1.41
5,U14C A22G U134C,1.2
6,U13C U109A U119C,1.84
7,U14C A42G U45C A94C U112C,0
8,U14A A124U U130C U143C,0.4
9,U13C U62C U102C A129U,0
10,U13G U14G A31U G35C U104C,1.22
11,U14A U96C A142G,0.06
12,U14A A30G U132C,0.8
13,U14A G54A A141G,0.36
14,U14C A30U U81C U115C,0
15,U13C U108A A129G,1.7
16,U14A C18A A141G,0.74
17,U14A A77G G125U C133A,0.58
18,U14A U47A G137A,1
19,U13C U85C U100C A140G,0
20,U14A U26C U132C A140G U143G,0.63
21,U13C U87A A136U,0.3
22,U14A C61U U87C U100C G106U U109C A136G,0
23,U14C A22G A79G U108A A136U A140U,0
